The list shows a part of the results. At the low end of the ranking, values are background and their order means little.

In this assay the target is SIX1-Q177R homeodomain (UniProt Q15475). The assay can be described thus: universal protein binding microarray. Particulars: Universal all-10-mer PBM (8x60K, AMADID 030236), 300 nM GST-tagged protein, Alexa Fluor 488 anti-GST; buffer, salt, pH and temperature not stated; high values mean tight binding; most listed sequences are background and not binding sites; double strand, one strand shown.
Take AGAAGACT: the binding signal was -0.216 E-score.

Consider TATAGGAA, for which the binding signal was -0.0204 E-score.

As to AGTGTCAT, the binding signal was found to be 0.462 E-score.

AGTATGAT: the binding signal is 0.0566 E-score. With AACTCGTG, the binding signal worked out at 0.082 E-score.

With CCCCATAA, the binding signal came out at 0.127 E-score. Regarding ATTACAAG, the binding signal is -0.0386 E-score.

For the sequence AGGCTTCG, the binding signal is -0.199 E-score. Take TCATGCAA: the binding signal was -0.0432 E-score. Under CTTCTGTC stands -0.239 E-score; under GATATAGA, -0.193 E-score; under GGTTCCAC, -0.0424 E-score. Take AAGAGTCC: the binding signal is -0.159 E-score. For CTCTTCTA, the binding signal was 0.0592 E-score. Consider AAGCAGCT, for which the binding signal was -0.199 E-score. Regarding AAGACCTG, the binding signal is -0.086 E-score. Then GTACCACA, with -0.0682 E-score. For ATTGGGTA, the binding signal came out at 0.00049 E-score.

Turning to CCGTGAAA, the binding signal is -0.104 E-score. Then GCCCGACA, with 0.102 E-score. Then ACCGAAGC, with 0.031 E-score; and ACCTAAGG, with 0.0521 E-score. Then GACCGCCA, with -0.121 E-score; and ATAGTAGC, with 0.0458 E-score; and ATTCCGAG, with -0.0776 E-score. On to AATGGAGT, for which the binding signal worked out at 0.164 E-score. Then ACAAATTC, with 0.00838 E-score; and AGAAGACG, with -0.174 E-score.

Consider GAATGGGC, for which the binding signal is -0.11 E-score. Under CATTGTCA stands -0.0285 E-score. Under ACTGTTTC stands -0.0755 E-score. In the case of CTCACTGA, the binding signal is -0.105 E-score.

Turning to CTCATAGA, the binding signal is -0.191 E-score.

As to CTAGAAAA, the binding signal was -0.279 E-score. On to CTGCGGTA, for which the binding signal was found to be 0.0698 E-score. Under TACATACA stands 0.125 E-score; under CCAAAATA, -0.00549 E-score; under ATGAACAT, -0.325 E-score.

On to ACCTATGA, for which the binding signal was -0.0518 E-score. Under ATCTGGTG stands 0.292 E-score. As for AGCATGTA, the binding signal is -0.207 E-score.

AGAACTTG: the binding signal is -0.299 E-score.

As for GACACGAA, the binding signal stood at 0.331 E-score. Then GGCATCAC, with -0.057 E-score. Consider AAAGACAA, for which the binding signal was -0.273 E-score.

For the sequence GCATGCTA, the binding signal is -0.134 E-score. With ACTAGTGC, the binding signal is -0.178 E-score. Then CACTGGTC, with 0.0705 E-score; and GTCTATAA, with 0.113 E-score. On to CTGCCCGA, for which the binding signal was 0.139 E-score. As for CAGGCAAA, the binding signal was -0.164 E-score. Under CGTCAGGA stands 0.0933 E-score; under CAGTTCCG, -0.187 E-score; under AACGCATA, 0.0663 E-score. Under AGATGTAG stands -0.0696 E-score; under CATCGTGA, -0.122 E-score. On to AAGCGCTC, for which the binding signal is -0.06 E-score. Then ACCCCGCG, with 0.254 E-score. Then CTAGATTA, with -0.115 E-score; and CCTGGATA, with -0.056 E-score. Under GTGTCTGA stands 0.364 E-score.

Take GGGTACTA: the binding signal came to 0.224 E-score. Under CGAGGTGC stands 0.127 E-score; under TAAGACGA, -0.198 E-score; under AATAACCA, -0.273 E-score. Regarding AACTTGTG, the binding signal was found to be 0.0347 E-score. Then AAATGTCG, with -0.184 E-score; and GACCAGAC, with -0.195 E-score; and TTGGAAAA, with -0.0791 E-score.

Take AGCTGTAA: the binding signal was -0.295 E-score.

On to ACTCCCCC, for which the binding signal was found to be 0.21 E-score.

As to GACGGCAC, the binding signal is -0.135 E-score. For CTCTGAAA, the binding signal is -0.0336 E-score. In the case of AATGAATT, the binding signal came to 0.0485 E-score.

Regarding CGGCACAG, the binding signal is -0.172 E-score.

For ACGAACGG, the binding signal is -0.0186 E-score. GATCGCTA: the binding signal was -0.0743 E-score. Turning to GCTAAGGA, the binding signal was -0.164 E-score. CATGGTAG: the binding signal was -0.0704 E-score. Consider GGGGTCGA, for which the binding signal was 0.298 E-score.

As for CCTATCAC, the binding signal was 0.173 E-score. Then AGTCAGCG, with -0.146 E-score; and CGAACCCG, with 0.112 E-score.

As for AATCTGAC, the binding signal is 0.17 E-score.

As to CTAAGAGA, the binding signal is -0.177 E-score. Then ACTCAGTG, with 0.135 E-score; and CGCAGCAG, with -0.208 E-score.

Consider AACAGGAA, for which the binding signal is -0.0144 E-score. Turning to CGGCTCAA, the binding signal came out at 0.0565 E-score. Consider GATCCCAC, for which the binding signal amounted to 0.24 E-score. ACACACAA: the binding signal worked out at 0.244 E-score. Under CCAGTTCG stands -0.0554 E-score. Then ATTGCTCC, with -0.213 E-score; and ACGCTTTG, with 0.0347 E-score; and ACATCCAG, with -0.0413 E-score.

Regarding ATTCCTGC, the binding signal stood at 0.0939 E-score. For the sequence CAATACAA, the binding signal was -0.0858 E-score. AGCTAAGA: the binding signal is -0.202 E-score.

Turning to ATGATATC, the binding signal is -0.0815 E-score. Under AAACGAAT stands -0.287 E-score; under GCTCAAAA, -0.16 E-score; under AGACTGAT, -0.0904 E-score. With CGAGCCGC, the binding signal is -0.157 E-score. For the sequence CAAGGACA, the binding signal worked out at 0.194 E-score. For the sequence AGGGCGAG, the binding signal was -0.0475 E-score. As for AAGCCCGA, the binding signal was -0.126 E-score. In the case of GCAGAAGC, the binding signal was -0.165 E-score. Under CATGTACC stands -0.0151 E-score. Then AACGTGGC, with -0.161 E-score; and CCCTGTTC, with 0.13 E-score; and AACAGAAG, with -0.206 E-score. Take CAGAGCAG: the binding signal is -0.107 E-score. As for CCCATTCC, the binding signal was -0.0708 E-score.

As for AATGAGCT, the binding signal was -0.11 E-score.

Regarding GCCGAGCA, the binding signal is -0.292 E-score. For the sequence GCCTAGGA, the binding signal is -0.26 E-score.

Regarding AGTCTGCC, the binding signal is -0.0721 E-score. Under CAACACCG stands 0.467 E-score. AGGGCGCC: the binding signal is -0.067 E-score. Under GTAGCGAC stands 0.113 E-score. Under TCTTGCAA stands -0.0994 E-score; under GCCGCACC, 0.157 E-score. Take AACACCAG: the binding signal is 0.465 E-score.

With TAAACGGA, the binding signal was -0.0317 E-score. As for CGTAGACC, the binding signal is -0.0214 E-score.

Take AGATATTA: the binding signal is -0.23 E-score. On to AATGTTCC, for which the binding signal is -0.191 E-score. For the sequence ATCAGGGG, the binding signal is 0.0933 E-score.

For the sequence CGTCCGAC, the binding signal was -0.00297 E-score.

On to GGCGTGCA, for which the binding signal is 0.0176 E-score. In the case of GTTGGACA, the binding signal is 0.245 E-score. Under ACCTGTTA stands 0.0872 E-score; under AGGAGGTC, 0.0221 E-score.

As for CTACCAAG, the binding signal was -0.0313 E-score. For GACCCTAC, the binding signal was found to be 0.116 E-score. As for ATGAGTCC, the binding signal is -0.0865 E-score. Take GTCATATA: the binding signal turned out to be 0.0597 E-score. Then ATTTTCTG, with -0.252 E-score; and AGGCCATG, with -0.0955 E-score.

As for CTTCGAGA, the binding signal was -0.213 E-score. For GATACTGC, the binding signal came out at 0.158 E-score. Take AGCGCACA: the binding signal is -0.039 E-score. Under AACCACGA stands 0.0662 E-score; under AACATAAA, -0.212 E-score; under CCATCTCG, 0.117 E-score. As to CTGGAGTA, the binding signal came to 0.125 E-score.

For CTGCCCGC, the binding signal stood at 0.163 E-score. In the case of GCGCGTTA, the binding signal is 0.0713 E-score. Under GGTAACAA stands -0.156 E-score. As for CAGGAGGA, the binding signal is 0.0407 E-score. Turning to AACATGAT, the binding signal was -0.205 E-score. Then GCCCCACC, with 0.0163 E-score; and ACCTTCGA, with 0.037 E-score. Take AGACTTCG: the binding signal was -0.131 E-score. Then TCCGAGAA, with -0.127 E-score; and ATATTCTG, with -0.0385 E-score; and AATCATTA, with -0.114 E-score. Consider AACCTATT, for which the binding signal was -0.195 E-score. Regarding ATTGTCCG, the binding signal is -0.128 E-score.

For the sequence AAGGCAGG, the binding signal came to 0.0787 E-score. For ACGCTGTA, the binding signal is -0.0745 E-score. Consider AAGGCAAG, for which the binding signal was -0.217 E-score. Under GTCCTAAA stands -0.0977 E-score. As for AAGTTAAG, the binding signal was -0.182 E-score.

As for ATATACTG, the binding signal is -0.0962 E-score.

Regarding CAGTTCTC, the binding signal is -0.0947 E-score. Regarding CATCGGAG, the binding signal came out at 0.111 E-score. In the case of ATTCAGAC, the binding signal is -0.229 E-score.

Consider ATTCGGGC, for which the binding signal is -0.168 E-score. Under GGGGCTTA stands 0.029 E-score; under CTTCATAC, -0.0249 E-score. Turning to CTTTTCGA, the binding signal was -0.0831 E-score.

The values are drawn from PMC10668032.
